In PubChem BioAssay AID1918993 (Molecular Pharmacology Branch, DTP, NCI, 2023):
Certain results were filed several times, with different values. The list is limited to them. There may be further records. Values that stand side by side are repeats (runs, samples, wells, individuals or studies). Counts like (3×) count equal records among those shown.

Test system: 233499-124-R-J3-PDC complex spheroid growth
Assay: Anticancer human tumor 233499-124-R-J3-PDC patient-derived colon adenocarcinoma cell line growth inhibition [AhR]
Details: for viability, T/C: stronger effect = lower value
Source text: Multicellular complex tumor spheroid response to aryl hydrocarbon receptor antagonists in combination with a variety of drugs and investigational agents in selected tumor cell lines
The current study was undertaken to assess response to aryl hydrocarbon receptor antagonists in combination with standard-of-care drugs and investigational agents in solid tumor complex spheroid models. Complex spheroids include a stromal component modeled by human endothelial cells (HUVEC) and fibroblasts modeled by human mesenchymal stem cells (MSCs). The concentration ranges selected for each drug and investigational agent were based upon clinically achievable concentrations if the clinical Cmax of the agent was known.
Compounds. The drugs and investigational agents: BAY 2416964 (NSC825713), GNF351 (NSC835774), CH-223191 (NSC835775), CPI-455 (NSC825282), aza-TdCyd (NSC777586), decitabine (NSC127716), belinostat (NSC758774), entinostat (NSC756642), pevonedistat (NSC761192), tazemetostat (NSC777109), talazoparib (NSC765396), olaparib (NSC753686), selinexor (NSC780203), nedisertib (M3814, NSC802822), bortezomib (NSC756655), venetoclax (NSC766270), doxorubicin (NSC123127), elimusertib (BAY189344, NSC800525), ceralasertib (AZD6738, NSC777638), TAK-243 (NSC785004), alisertib (NSC759677), etoposide (NSC141540), topotecan (NSC609699), eribulin (NSC707389), gemcitabine (NSC613327), carboplatin (NSC241240), cisplatin (NSC119875), and SN-38 (NSC673596) were obtained from the National Cancer Institute (NCI) Developmental Therapeutics Program Chemical Repository (32). The FDA-approved anticancer drug set is available from the Developmental Therapeutics Program at https://dtp.cancer.gov/organization/dscb/obtaining/available plates.htm. […] The stock solutions were prepared in dimethyl sulfoxide (DMSO, Sigma-Aldrich, St. Louis, MO, cat. D2650), except for the platinum compounds which were prepared in saline (Quality Biological, Gaithersburg, MD, cat. 114-055-101), at 800-fold the tested concentration and stored at -70 degrees C prior to their use. All drugs and investigational agents were tested over a range starting from a high concentration at or near the clinical Cmax and decreasing in half-log increments. If the clinical Cmax for an agent had not been determined, the highest concentration tested was 10 microM (Table 1).
Cell Culture. All cells were maintained in an incubator at 37 degrees C and 5% CO2 with 95% humidity. The PDC lines were cultured according to standard operating procedures established by the NCI PDMR (https://pdmr.cancer.gov). Briefly, all PDCs were thawed and cultured in Matrigel-coated flasks prepared with a working solution of 1X Ham's F-12 nutrient mix, without supplementation (Invitrogen, Waltham, MA, cat. 11765054), 100 U/mL penicillin-streptomycin (Invitrogen, cat. 15140122), and 2.5% Matrigel (Corning Inc., Corning, NY, cat. 354248) for the first three passages. All PDCs were cultured in complete DMEM/F-12 media containing advanced DMEM/F-12 (Invitrogen, cat. 12634028), 4.9% defined fetal bovine serum, heat inactivated (HyClone Laboratories Inc., Logan, UT, cat. SH30070.03HI), 389 ng/mL hydrocortisone (Sigma-Aldrich, cat. H4001), 9.7 ng/mL human EGF recombinant protein (Invitrogen, cat. PHG0313), 23.4 microg/mL adenine (Sigma-Aldrich, cat. A2786), 97.3 U/mL penicillin-streptomycin (Invitrogen, cat. 15140122), 1.9 mM L-glutamine (Invitrogen, cat. 25030081), and 9.7 microM Y-27632 dihydrochloride (Tocris Bioscience, Bristol, United Kingdom, cat. 1254). The PDCs were cultured in complete DMEM/F12 media without 10 microM Y-27632 dihydrochloride for at least two passages prior to the screen. The established cell lines NCI-H1341 and […] were cultured in DMEM/F-12, HEPES (Invitrogen, cat. 11330032), 5% defined fetal bovine serum (HyClone Laboratories Inc., cat. SH30070.03), ITS premix universal culture supplement [insulin (5 microg/mL), transferrin (5 microg/mL), and selenious acid (5 ng/mL)] […]
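Note: spheroids exposed to agents for seven days before reading.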

SMILES | IC50 (compound alone) | viability, T/C (compound alone 0.316 µM) | viability, T/C (compound alone 1 µM) | viability, T/C (compound alone 3.16 µM) | viability, T/C (compound alone 10 µM) | viability, T/C (compound alone 0.1 µM)
Nc1ccn(C2OC(CO)C(O)C2(F)F)c(=O)n1 (centres undefined) | 310 nM, 3.01 µM, > 10 µM | – | – | – | – | –
Cc1ccccc1N=Nc1ccc(NC(=O)c2ccnn2C)c(C)c1 | – | 99.6, 99.3, 93.8 (2×), 106 (2×), 90.5, 85.4, 102 (2×), 110, 104 (2×), 103, 90.8, 95.5, 85 (2×), 89.5, 81.5% | 92.2, 104, 91.3 (2×), 110, 102 (3×), 96.5, 94.9, 96.4, 103 (2×), 90.3, 107, 109, 105, 119, 100, 96.6% | 84 (2×), 96.3, 96, 110, 96.5, 113, 101, 109, 111, 112, 94.6, 107, 97.1, 102, 104, 97.9, 93.4, 100, 92.8% | – | –
Cc1cncc(-c2nc(NCCc3c[nH]c4ccccc34)c3ncn(C(C)C)c3n2)c1 | – | – | – | 77.5, 84.5, 86.8, 78.7, 64.9, 74.7, 83.4, 82.4, 71.7, 71.5, 65.7, 82.9, 91.5, 66.8, 73.9, 79.8, 101, 75.6, 91.3, 81% | 11.4, 11.3, 5.73, 7.48, 39.5, 8.68, 6.44, 10.3, 10.5, 7.69, 13.9, 17.9, 15, 7.32, 6.31, 20.1, 14.9, 6.01, 9.6, 12.2, 4.37% | –
CC(CO)NC(=O)c1cc(-c2ccc(Cl)cc2)nn(-c2cnn(C)c2)c1=O (centres undefined) | – | – | 97.1, 107, 91.7, 84.5 (2×), 86.7 (2×), 98.6, 99.8, 86, 86.8, 83.5, 80.2, 99.2, 106, 94.6, 95.7, 93.6, 86.3, 82.3, 81.2% | – | 87.9, 92, 87.2, 82.3, 83.7, 85.5, 94.1, 84.1, 83.3, 85, 91.1, 74.7, 89.3, 86, 98.3, 90.8, 88.7, 69, 92.2% | 96.1, 110, 99, 95.9, 83.6, 90.7, 97.9, 106, 92.4, 91.8, 85.8, 96.5, 81.3, 104, 101 (2×), 94.9, 98.3, 95.1, 102%
